# Measurements taken from PubChem BioAssay AID624296 (National Center for Advancing Translational Sciences (NCATS), 2012).
# About 9,900 (2.8%) of roughly 350,000 compounds were called active. The shares of active, inactive and inconclusive entries below differ from those in the screen. Calls follow the shape of the dose curve; as a rule, active = well fitted activation curve with a large enough effect; inconclusive = small, poorly fitted or top-dose-only effect; inactive = no such curve, though single readings can be large or run the other way. No potency is given beside an inconclusive call; the fits are too rough.
# Assay: A quantitative high throughput screen for small molecules that induce DNA re-replication in MCF 10a normal breast cells. Also: nearly all actives have a fitted effect of over 50% in size. As to activity, positive = re-replication: % of control where 0% means no effect.
# Conditions: MCF 10A DNA re-replication, Hoechst nuclear intensity, 48 h; activity, positive = re-replication: at 46.1 µM (top of the series)
# Potency is read from the fitted curve at half-maximal effect; tags tell the direction and shape of the fitted curve.
Compound,"activity, positive = re-replication",Potency
O=[N+]([O-])c1ccc(Cl)cc1N/N=C/c1ccncc1,inactive: 13.8%,
Fc1cccc(CCN2C(=S)NC[C@@H]2CC2CCCCC2)c1,,"inconclusive [activator, partial curve, poor fit]"
COc1ccccc1CNC(=O)COc1ccc(C)cc1,,"inconclusive [activator, single point]"
CCOC(=O)c1c(C)[nH]c(C(=O)C(C)Cl)c1C (stereo unspecified),,"inconclusive [activator, single point]"
CCOc1ccc(S(=O)(=O)NCCC(=O)NCC(c2ccccc2OC)N2CCCC2)cc1 (stereo unspecified),inactive: 6.13%,
N#CCC(=O)N/N=C/c1cn(Cc2cccc3ccccc23)c2ccccc12,,active: 5.17 µM
O=C(CCC1CCCC1)N1CCN(S(=O)(=O)c2ccc(Br)cc2)CC1,inactive: -0.231%,
O=C(Nc1cccc(S(=O)(=O)N2CCOCC2)c1)C(c1ccccc1)N1CCCCC1 (stereo unspecified),,"inconclusive [activator, partial curve, poor fit]"
Cc1ccc(S(=O)(=O)CCc2nc3ccccc3n2CCC#N)cc1,,active: 18.4 µM
C=CCOC(=O)C1=C(C)NC(C)=C(C(=O)OCC=C)C1/C=C/c1ccccc1,inactive: 166%,
Cc1cccc(CN(CC(=O)N/N=C/c2cccs2)S(=O)(=O)c2ccc(Cl)cc2)c1,,"inconclusive [activator, partial curve, poor fit]"
CCOc1ccc(NC(=O)CCC(=O)c2ccc(F)cc2)cc1,inactive: -10.2%,
CCC(C(=O)NC1CCCC1)N(C(=O)Cn1nnc(-c2ccc(C)o2)n1)c1ccc(OC)cc1 (stereo unspecified),inactive: 22.7%,
CCOc1cc(/C=C2/NC(=S)NC2=O)ccc1OCc1ccc([N+](=O)[O-])cc1,,"inconclusive [activator, partial curve, poor fit]"
O=C(NCC1CCCO1)c1cc2c([nH]c3ccccc32)c(-c2ccc(F)cc2)n1 (stereo unspecified),,"inconclusive [activator, partial curve]"
COc1ccc(Cn2c(N)c(S(=O)(=O)c3cccs3)c3nc4ccccc4nc32)cc1,,"inconclusive [activator, full curve, poor fit]"
Cc1ccccc1C(=O)c1cccn1CC(=O)NCCN1CCN(c2cccc(C)c2C)CC1,,"inconclusive [activator, single point]"
COc1ccc(C(=O)/C=C/c2cc(OC)c(O)c(OC)c2)c(F)c1,,"inconclusive [activator, single point]"
Cc1nc(NC2CCCCC2)c2nnn(Cc3ccccc3Cl)c2n1,,"inconclusive [activator, single point]"
CCCCN(C(=O)Cc1ccc(S(=O)(=O)N2CCOCC2)s1)c1ccccc1,,"inconclusive [activator, partial curve, poor fit]"
Cc1ccc(/C(C#N)=C\c2ccc(N3CCOCC3)o2)cc1,inactive: -4.42%,
N/C(CCS(=O)(=O)c1ccc(Cl)cc1)=N\OC(=O)c1ccccc1C(F)(F)F,,"inconclusive [activator, single point]"
CC(C)Cc1c(O)nc(SCC(=O)Nc2ccc3c(c2)CCC3)[nH]c1=O,,"inconclusive [activator, single point]"

Compound,"activity, positive = re-replication",Potency
CCOC(=O)c1cnn(C)c1NC(=O)c1ccc(Cl)cc1Cl,inactive: -0.312%,
CC(C)(C)NC(=O)Nc1ccc(F)c(Cl)c1,,"inconclusive [activator, partial curve, poor fit]"
CCOc1ccc(NS(=O)(=O)c2ccc(C(=O)N3CCCCCC3)cc2)cc1,,"inconclusive [activator, partial curve, poor fit]"
CC(C)c1ccc(Nc2nc(Cl)nc(NCc3ccco3)n2)cc1,,active: 23.1 µM
CCN1CCN(CCCNC(=O)c2ccc3c(c2)NC(=O)c2ccccc2S3)CC1,inactive: -3.79%,
O=S(=O)(Nc1ccccc1)c1cccc2nsnc12,inactive: -2.06%,
COC(=O)c1c(NC(=O)CCS(=O)(=O)c2ccccc2)sc2c1CCN(C)C2,,"inconclusive [activator, single point]"
COCCn1c(=NC(=O)c2cc(-c3cccs3)nc3ccccc23)sc2cc(S(N)(=O)=O)ccc21,,"inconclusive [activator, partial curve]"
c1ccc(Nc2nnc(-c3cccc4ccccc34)o2)cc1,,"inconclusive [activator, partial curve, poor fit]"
COc1cc(CCCN2C(=O)C(=O)NC[C@@H]2c2ccccc2)cc(OC)c1OC,,"inconclusive [activator, single point]"
CCOc1ccc(OCCC(=O)NNC(=O)c2cc(C)oc2C)cc1,inactive: 1.8%,
Cc1cc(Cl)cc(Cl)c1OCCCCN(C)C,,"inconclusive [activator, single point]"
CCc1nnc(NC(=O)c2ccc(N(C)S(=O)(=O)c3ccccc3)cc2)s1,inactive: -2.68%,
CC(C)NC(=O)CSc1nc(Cc2ccccc2)nc2ccccc12,,"inconclusive [activator, single point]"
COC(=O)c1ccc(C(=O)OC)c(NC(=S)N2CCCC2)c1,inactive: 0.576%,
CC(=O)n1cc(N(C(=O)CCl)c2ccc([N+](=O)[O-])cc2)c2ccccc21,,"inconclusive [activator, single point]"
O=C1NC2(CCCCC2)N=C1c1ccc(F)cc1,inactive: -7.52%,
CC1=NN(C(=O)COc2ccccc2)C(O)(c2cccnc2)C1 (stereo unspecified),inactive: 2.13%,
Cc1cc(C)cc(NC(=O)C(=O)NCCc2c[nH]c3ccccc23)c1,inactive: 0.315%,
COc1ccc(-c2cnnc(N/N=C/c3ccc(O)c(O)c3)n2)cc1,,"inconclusive [activator, single point]"
COCCN(C(=O)COC(=O)c1ccccc1Nc1ccccc1)c1c(N)n(Cc2ccccc2)c(=O)[nH]c1=O,,"inconclusive [activator, single point]"
Cc1ccc(Cc2c(C)nc3nc(SCC(=O)NCc4ccco4)nn3c2C)cc1,,active: 6.51 µM
CCC(NC(=O)c1[nH]c(C)c(C(C)=O)c1C)c1ccc(Br)cc1 (stereo unspecified),,"inconclusive [activator, partial curve, poor fit]"
